This is one part of the list. Single values are uncertain, as repeats are few or missing.
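Also: cells treated in 1,536-well plates, then fixed and DAPI-stained, with nuclei counted from automated high-throughput microscope images.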

The subject of the assay is RPMI7951. Briefly: cell count relative to DMSO control; melanoma cells; higher = more viable cells. The settings on record: library dose: standard library concentration; 72 h.
`CO[C@H]1C[C@@H]2CC[C@@H](C)[C@@](O)(O2)C(=O)C(=O)N2CCCC[C@H]2C(=O)O[C@H]([C@H](C)C[C@@H]2CC[C@@H](OCCO)[C@H](OC)C2)CC(=O)[C@H](C)/C=C(\C)[C@@H](O)[C@@H](OC)C(=O)[C@H](C)C[C@H](C)/C=C/C=C/C=C/1C` [everolimus] + NCC(=O)Nc1ccc(-n2nc(C(F)(F)F)cc2-c2ccc3c(ccc4ccccc43)c2)cc1 [OSU03012] (first compound 0.1 µM, partner dose 5 µM) displayed a cell count of 62.5%.

Compound `CC(=O)c1c(C)c2cnc(Nc3ccc(N4CCNCC4)cn3)nc2n(C2CCCC2)c1=O` [palbociclib] + Oc1cc(-c2nc(-c3ccccc3)[nH]c2-c2ccncc2)ccc1Cl [L779450] (first compound 0.2 µM, partner dose 1 µM) came in with a cell count of 68.8%.

`Nc1ccn([C@@H]2O[C@H](CO)[C@@H](O)C2(F)F)c(=O)n1` [gemcitabine] + CC1(C)NC(=O)N(c2ccc([N+](=O)[O-])c(C(F)(F)F)c2)C1=O [nilutamide] (first compound 0.002 µM, partner dose 5 µM) gave a cell count of 54.5%.

For `CO[C@H]1C[C@@H]2CC[C@@H](C)[C@@](O)(O2)C(=O)C(=O)N2CCCC[C@H]2C(=O)O[C@H]([C@H](C)C[C@@H]2CC[C@@H](OCCO)[C@H](OC)C2)CC(=O)[C@H](C)/C=C(\C)[C@@H](O)[C@@H](OC)C(=O)[C@H](C)C[C@H](C)/C=C/C=C/C=C/1C` [everolimus] + C=CCNC1=C2C[C@@H](C)C[C@H](OC)[C@H](O)[C@@H](C)/C=C(\C)[C@H](OC(N)=O)[C@@H](OC)/C=C\C=C(/C)C(=O)NC(=CC1=O)C2=O [Tanespimycin] (first compound 0.1 µM, partner dose 0.01 µM), the cell count was found to be 16.4%.

`CC(=O)O[C@@]12CO[C@@H]1C[C@H](O)[C@@]1(C)C(=O)[C@H](O)C3=C(C)[C@@H](OC(=O)[C@H](O)[C@@H](NC(=O)OC(C)(C)C)c4ccccc4)C[C@@](O)([C@@H](OC(=O)c4ccccc4)[C@H]21)C3(C)C` [Docetaxel] + CC1(C)NC(=O)N(c2ccc([N+](=O)[O-])c(C(F)(F)F)c2)C1=O [nilutamide] (first compound 0.0005 µM, partner dose 5 µM) showed a cell count of 15.1%.

As for `CC(=O)c1c(C)c2cnc(Nc3ccc(N4CCNCC4)cn3)nc2n(C2CCCC2)c1=O` [palbociclib] + NCC(=O)Nc1ccc(-n2nc(C(F)(F)F)cc2-c2ccc3c(ccc4ccccc43)c2)cc1 [OSU03012] (first compound 0.2 µM, partner dose 5 µM), the cell count was found to be 82.4%.

Take `Nc1nc(F)nc2c1ncn2[C@@H]1O[C@H](CO)[C@@H](O)[C@@H]1O` [fludarabine] + Nc1cccc2c1CN(C1CCC(=O)NC1=O)C2=O [lenalidomide] (first compound 1 µM, partner dose 5 µM): the cell count was 63.5%.

The compound `CC(=O)O[C@@]12CO[C@@H]1C[C@H](O)[C@@]1(C)C(=O)[C@H](O)C3=C(C)[C@@H](OC(=O)[C@H](O)[C@@H](NC(=O)OC(C)(C)C)c4ccccc4)C[C@@](O)([C@@H](OC(=O)c4ccccc4)[C@H]21)C3(C)C` [Docetaxel] + Oc1cc(-c2nc(-c3ccccc3)[nH]c2-c2ccncc2)ccc1Cl [L779450] (first compound 0.0005 µM, partner dose 1 µM) returned a cell count of 16%.

Take `Nc1ncn([C@H]2C[C@H](O)[C@@H](CO)O2)c(=O)n1` [decitabine] + CC1(C)NC(=O)N(c2ccc([N+](=O)[O-])c(C(F)(F)F)c2)C1=O [nilutamide] (first compound 0.5 µM, partner dose 5 µM): the cell count came to 76.5%.

`CC(=O)O[C@@]12CO[C@@H]1C[C@H](O)[C@@]1(C)C(=O)[C@H](O)C3=C(C)[C@@H](OC(=O)[C@H](O)[C@@H](NC(=O)OC(C)(C)C)c4ccccc4)C[C@@](O)([C@@H](OC(=O)c4ccccc4)[C@H]21)C3(C)C` [Docetaxel] + CN(NC(=O)CC(=O)NN(C)C(=S)c1ccccc1)C(=S)c1ccccc1 [STA4783] (first compound 0.0005 µM, partner dose 0.03 µM) showed a cell count of 10.3%.

In turn, `CC(=O)O[C@@]12CO[C@@H]1C[C@H](O)[C@@]1(C)C(=O)[C@H](O)C3=C(C)[C@@H](OC(=O)[C@H](O)[C@@H](NC(=O)OC(C)(C)C)c4ccccc4)C[C@@](O)([C@@H](OC(=O)c4ccccc4)[C@H]21)C3(C)C` [Docetaxel] + O=C(O)[C@@H]1[O][Sb](=[O])([O][Sb]2(=[O])[O][C@H]([C@H](O)CO)[C@H](O)[C@H](C(=O)O)[O]2)[O][C@H]([C@H](O)CO)[C@@H]1O [stibogluconate] (first compound 0.0005 µM, partner dose 10 µM) came in with a cell count of 21.3%.

The compound `Nc1ccn([C@@H]2O[C@H](CO)[C@@H](O)C2(F)F)c(=O)n1` [gemcitabine] + O=C(O)C(=O)Nc1sc2c(c1C(=O)O)CCNC2 [TCS401] (first compound 0.002 µM, partner dose 8.33333 µM) yielded a cell count of 71.5%.

The compound `CC(=O)O[C@@]12CO[C@@H]1C[C@H](O)[C@@]1(C)C(=O)[C@H](O)C3=C(C)[C@@H](OC(=O)[C@H](O)[C@@H](NC(=O)OC(C)(C)C)c4ccccc4)C[C@@](O)([C@@H](OC(=O)c4ccccc4)[C@H]21)C3(C)C` [Docetaxel] + C[C@]1(c2nc3c(C(N)=O)cccc3[nH]2)CCCN1 [Veliparib] (first compound 0.0005 µM, partner dose 7 µM) had a cell count of 28.8%.

As to `CC(=O)c1c(C)c2cnc(Nc3ccc(N4CCNCC4)cn3)nc2n(C2CCCC2)c1=O` [palbociclib] + N#Cc1c(O)c2c(-c3ccc(-c4ccccc4O)cc3)csc2[nH]c1=O [A769662] (first compound 0.2 µM, partner dose 10 µM), the cell count came out at 51.9%.

`Nc1ccn([C@@H]2O[C@H](CO)[C@@H](O)C2(F)F)c(=O)n1` [gemcitabine] + C=CCNC1=C2C[C@@H](C)C[C@H](OC)[C@H](O)[C@@H](C)/C=C(\C)[C@H](OC(N)=O)[C@@H](OC)/C=C\C=C(/C)C(=O)NC(=CC1=O)C2=O [Tanespimycin] (first compound 0.002 µM, partner dose 0.01 µM) had a cell count of 18.2%.

`CC(=O)c1c(C)c2cnc(Nc3ccc(N4CCNCC4)cn3)nc2n(C2CCCC2)c1=O` [palbociclib] + O=C(Nc1cccc(Cl)c1)Nc1ncc(CCNc2ncnc3ccsc23)s1 [SNS314] (first compound 0.2 µM, partner dose 0.004 µM) showed a cell count of 70.1%.

Compound `CC(=O)O[C@@]12CO[C@@H]1C[C@H](O)[C@@]1(C)C(=O)[C@H](O)C3=C(C)[C@@H](OC(=O)[C@H](O)[C@@H](NC(=O)OC(C)(C)C)c4ccccc4)C[C@@](O)([C@@H](OC(=O)c4ccccc4)[C@H]21)C3(C)C` [Docetaxel] + c1cc(-c2cnn3cc(-c4ccc(OCCN5CCCCC5)cc4)cnc23)ccn1 [Dorsomorphin] (first compound 0.0005 µM, partner dose 2 µM) displayed a cell count of 31.9%.

On to `Nc1ncn([C@H]2C[C@H](O)[C@@H](CO)O2)c(=O)n1` [decitabine] + COC(=O)c1sccc1S(=O)(=O)Nc1ccc(Nc2ccccc2)cc1OC [GSK0660] (first compound 0.5 µM, partner dose 5 µM), for which the cell count worked out at 96%.

Regarding `CO[C@H]1C[C@@H]2CC[C@@H](C)[C@@](O)(O2)C(=O)C(=O)N2CCCC[C@H]2C(=O)O[C@H]([C@H](C)C[C@@H]2CC[C@@H](OCCO)[C@H](OC)C2)CC(=O)[C@H](C)/C=C(\C)[C@@H](O)[C@@H](OC)C(=O)[C@H](C)C[C@H](C)/C=C/C=C/C=C/1C` [everolimus] + Clc1ccc(Nc2nnc(Cc3ccncc3)c3ccccc23)cc1 [vatalanib] (first compound 0.1 µM, partner dose 10 µM), the cell count turned out to be 59.9%.

Turning to `Nc1ccn([C@@H]2O[C@H](CO)[C@@H](O)C2(F)F)c(=O)n1` [gemcitabine] + OCc1c[nH]c2ccccc12 [Indole-3-carbinol] (first compound 0.002 µM, partner dose 4 µM), the cell count was 61.5%.

Compound `Nc1ncn([C@H]2C[C@H](O)[C@@H](CO)O2)c(=O)n1` [decitabine] + O=C(Nc1ccccc1)c1cc([N+](=O)[O-])ccc1Cl [GW9662] (first compound 0.5 µM, partner dose 10 µM) gave a cell count of 62.1%.

Compound `Nc1ccn([C@@H]2O[C@H](CO)[C@@H](O)C2(F)F)c(=O)n1` [gemcitabine] + NC(=O)Nc1cc(-c2cccc(F)c2)sc1C(=O)N[C@H]1CCCNC1 [AZD7762] (first compound 0.002 µM, partner dose 0.1 µM) yielded a cell count of 12%.

Compound `Nc1nc(F)nc2c1ncn2[C@@H]1O[C@H](CO)[C@@H](O)[C@@H]1O` [fludarabine] + O=c1cc(-c2cccc3c2Sc2ccccc2S3)oc(N2CCOCC2)c1 [KU55933] (first compound 1 µM, partner dose 5 µM) came in with a cell count of 69.6%.

As to `CC(=O)O[C@@]12CO[C@@H]1C[C@H](O)[C@@]1(C)C(=O)[C@H](O)C3=C(C)[C@@H](OC(=O)[C@H](O)[C@@H](NC(=O)OC(C)(C)C)c4ccccc4)C[C@@](O)([C@@H](OC(=O)c4ccccc4)[C@H]21)C3(C)C` [Docetaxel] + CO[C@H]1C[C@@H]2CC[C@@H](C)[C@@](O)(O2)C(=O)C(=O)N2CCCC[C@H]2C(=O)O[C@H]([C@H](C)C[C@@H]2CC[C@@H](OCCO)[C@H](OC)C2)CC(=O)[C@H](C)/C=C(\C)[C@@H](O)[C@@H](OC)C(=O)[C@H](C)C[C@H](C)/C=C/C=C/C=C/1C [everolimus] (first compound 0.0005 µM, partner dose 0.1 µM), the cell count is 26.4%.

Regarding `CC(=O)O[C@@]12CO[C@@H]1C[C@H](O)[C@@]1(C)C(=O)[C@H](O)C3=C(C)[C@@H](OC(=O)[C@H](O)[C@@H](NC(=O)OC(C)(C)C)c4ccccc4)C[C@@](O)([C@@H](OC(=O)c4ccccc4)[C@H]21)C3(C)C` [Docetaxel] + O=C(CCCCCCC(=O)Nc1ccccc1)NO [vorinostat] (first compound 0.0005 µM, partner dose 0.4 µM), the cell count came out at 18.7%.

The compound `Nc1ccn([C@@H]2O[C@H](CO)[C@@H](O)C2(F)F)c(=O)n1` [gemcitabine] + c1cc(-c2cnn3cc(-c4ccc(OCCN5CCCCC5)cc4)cnc23)ccn1 [Dorsomorphin] (first compound 0.002 µM, partner dose 2 µM) displayed a cell count of 53.6%.

The record behind these values is the supplement of paper PMC4604168 (melanoma cell lines).
